Results on 130 sequences are retold here after the supplement of paper PMC10126150.

Sequences with one replicate were seen in a single cluster, so their values are uncertain.
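Note: ATP exposure 15 min at 22 °C before imaging.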

The first data set relates to ATP. Put plainly: switch fluorescence ratio, 500 uM ATP over buffer (Cy3 cluster intensity, sum of 5 cycles each) (fold (ratio)); higher = stronger signal-on switching upon ATP binding; sequences stand for … in TCGTCGGCAGCGTCAGATGTGTATAAGAGACAGTTTTTTTTTTTTTTTTTTTTTTTTT…TC. The note with it: aptamer strand: ATP DNA aptamer (quencher-CACCTGGGGGAGTATTGCGGAGGAAGG + anchor), 100 nM annealed; ATP concentration: 500 uM; one replicate. The method, boiled down: (§1)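 Clusters with intensities outside 100-1000 RFU were excluded. The remaining Cy3-labelled switching-strand clusters on a modified Illumina MiSeq flow-cell had been annealed to 100 nM quencher-labelled ATP aptamer and imaged in selection buffer, then after 15 min with 500 uM ATP at 22 °C, for five cycles separated by NaOH stripping and re-annealing. The fluorescence ratio, averaged per switch-domain sequence, is each cluster's summed target-cycle Cy3 intensity over its summed buffer-cycle Cy3 intensity.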
In the case of TCGTACTTGC, the switch fluorescence ratio amounted to 0.998.
Regarding TTCTTTGCGC, the switch fluorescence ratio is 1.
For the sequence TTCTCATATG, the switch fluorescence ratio was 0.991.
For the sequence GAAGCAGGCT, the switch fluorescence ratio came out at 1.08.
Same read-out and setting: for CAATTCCCAA the value was 1.02.
Same read-out and setting: the value for CTCCAATTAT was 1.21; that for CGGACCAACA was 1.25; that for GGGATGGCG was 1.14.
The same measure, in the same setting: for CGTTGACTCA the value was 0.98.
TTGCGTCAGA: the switch fluorescence ratio is 0.988.
As for CGTAGTAAGT, the switch fluorescence ratio amounted to 1.09.
With GAATTCCGT, the switch fluorescence ratio came out at 0.948.
GAGCCGTTCA: the switch fluorescence ratio came out at 0.989.
Same read-out and setting: for GCGACCAGA the value was 1.04.
As to TATGTAGTGC, the switch fluorescence ratio was 1.03.
CTTGGTATGC: the switch fluorescence ratio amounted to 1.
With AGACAGTATA, the switch fluorescence ratio was 1.08.
As to TGTGGGTCAG, the switch fluorescence ratio worked out at 1.
Turning to AACTGATTAA, the switch fluorescence ratio was 0.988.
For the sequence ATTCCGTGCG, the switch fluorescence ratio came out at 1.19.
Turning to TCGCATAGAA, the switch fluorescence ratio is 1.07.
For TGAGCGAGAT, the switch fluorescence ratio came to 1.07.
Turning to CAATTTTCAG, the switch fluorescence ratio turned out to be 1.02.
On the same count and under the same terms, the value for ACTTATCA was 1.04.
Take GCGGTATGTG: the switch fluorescence ratio came out at 0.987.
As for AGATTGATTT, the switch fluorescence ratio was 1.01.
As for CGGATTATAA, the switch fluorescence ratio is 1.11.
GGAGGAGTGG: the switch fluorescence ratio is 0.955.
Regarding ATACACGAGA, the switch fluorescence ratio worked out at 1.07.
The same measure, in the same setting: for TGGTCATGTT the value was 0.986; for CCCCAAGTGG, 2; for CAGTCAAATA, 0.991.
On to CCAAAAAAT, for which the switch fluorescence ratio stood at 1.01.
The same measure, in the same setting: for TTCCTTAAGC the value was 1.01; for TCACTCTCTT, 0.966.
Turning to TGTTGGAC, the switch fluorescence ratio amounted to 0.949.
On to AGGAGGTACT, for which the switch fluorescence ratio worked out at 1.03.
As to GCGCTGCGGG, the switch fluorescence ratio was 1.01.
In the case of TAATGGCCTG, the switch fluorescence ratio turned out to be 0.992.
The same measure, in the same setting: for GACCGAGTAT the value was 1.03.
For the sequence AGCGTTATTG, the switch fluorescence ratio came to 0.959.
Take CCGGGGATAG: the switch fluorescence ratio is 1.98.
With GCATTATCGC, the switch fluorescence ratio is 1.01.
As to AAATGTTAGG, the switch fluorescence ratio came to 0.99.
With ATCATTCCCC, the switch fluorescence ratio was determined as 1.06.
As for TTGAAACGCA, the switch fluorescence ratio stood at 1.07.
TTACTTGTTG: the switch fluorescence ratio worked out at 0.988.
On to AATATAAGGC, for which the switch fluorescence ratio was found to be 1.12.
In the case of AAGGTGATT, the switch fluorescence ratio amounted to 1.01.
On the same count and under the same terms, for ACAAAGCT the value was 1.2; for TTAATTAGTA, 0.999; for TTTTAATGG, 1.02.
Take AACGCACTAT: the switch fluorescence ratio worked out at 1.52.
Turning to TAGCCCGCGG, the switch fluorescence ratio was 0.984.
Turning to AGCAAGGATA, the switch fluorescence ratio came out at 1.04.
GTTCTTATTA: the switch fluorescence ratio worked out at 0.941.
On to GATCCAGCGA, for which the switch fluorescence ratio turned out to be 1.02.
For the sequence GGCAGTGTTC, the switch fluorescence ratio was determined as 0.98.
As to CACATTCGGT, the switch fluorescence ratio was 1.
TTACGTTTAG: the switch fluorescence ratio worked out at 1.07.
As to ATGTTCATCT, the switch fluorescence ratio was 0.946.
For CAGGACGACC, the switch fluorescence ratio was found to be 1.76.
As for GGATTCAAGC, the switch fluorescence ratio is 1.02.
Regarding ATGACGAATT, the switch fluorescence ratio is 1.
With TCGTTGGTAA, the switch fluorescence ratio was 1.03.
Still for that read-out and setting: for AAACTTAA the value was 1.04; for AGGTATATAT, 0.974; for ACGTTCAGTC, 1.04.
As to TATTTATCAC, the switch fluorescence ratio came to 1.03.
As for TACCACGTAC, the switch fluorescence ratio came to 2.02.
CGATGACTCG: the switch fluorescence ratio turned out to be 1.05.
Same read-out and setting: for CATGAGTCG the value was 0.985; for CCATACGCTC, 2.49.
On the same count and under the same terms, for TTTAATGTAG the value was 1.06.
On the same count and under the same terms, for TTTCGCACGT the value was 1.29.
Turning to CGAGGCGTGT, the switch fluorescence ratio is 0.993.
For ATACTTTGTT, the switch fluorescence ratio was determined as 0.984.
Still for that read-out and setting: for ATCTGGGACA the value was 1.01; for GAATGTCTCT, 1.01; for TGAAGCGTGT, 0.978.
Regarding AAGCGGAACT, the switch fluorescence ratio was 1.02.
Still for that read-out and setting: for ACGATGTAAG the value was 1.01; for CCGGTCCAAT, 4.1; for ATGGTTCGCA, 0.974.
On the same count and under the same terms, for TTAGAAGGCG the value was 1.
As for CAAGGGGTTC, the switch fluorescence ratio was 0.948.
For the sequence TTGTTCTCAG, the switch fluorescence ratio was 0.941.
Take TGCGATTTA: the switch fluorescence ratio stood at 0.98.
Regarding AACAAACGCT, the switch fluorescence ratio came out at 1.22.
Still for that read-out and setting: for CCATCTATTG the value was 1.02; for AGCTGTTTGA, 1.04.
For GTGAAGTCGC, the switch fluorescence ratio was found to be 0.925.
As for GCGCACATGG, the switch fluorescence ratio came out at 1.9.
In the case of TGTAGTAACT, the switch fluorescence ratio was found to be 1.01.
In the case of CGAAGGCACC, the switch fluorescence ratio stood at 1.13.
Same read-out and setting: the value for CAAAGACGTT was 0.993.
Same read-out and setting: the value for CCTAGCATTT was 1.62; that for GCGAAGTTGG was 0.981; that for CAGGGCGAGT was 1.
GGACCGTCA: the switch fluorescence ratio is 0.992.
As to ACCGGTCATT, the switch fluorescence ratio came out at 1.01.
Same read-out and setting: the value for CAGTAGATCG was 1.02; that for GTGTGAAAGT was 0.966; that for TGCAGAAATC was 1.18.
With TTTCGATGAC, the switch fluorescence ratio is 2.3.
For the sequence GGGGCTTGCT, the switch fluorescence ratio turned out to be 1.
For the sequence TAAGAGCTAT, the switch fluorescence ratio was 1.03.
Turning to GCTGTACGTC, the switch fluorescence ratio turned out to be 1.09.
As to TAGCCGCCGA, the switch fluorescence ratio stood at 1.44.
Turning to TGAAGTCGG, the switch fluorescence ratio is 0.989.
The same measure, in the same setting: for ATCTAAATGA the value was 0.966; for AATGTAGG, 0.974.
Still for that read-out and setting: for ATGGAACGAC the value was 1.01; for CACCTTTGGC, 1.08; for GTGGCAAACT, 1.06.
For the sequence CGAACAGACA, the switch fluorescence ratio worked out at 1.05.
As to GGCCCCCTAC, the switch fluorescence ratio stood at 1.13.
With AAGGAAGCCT, the switch fluorescence ratio worked out at 1.01.
In the case of CTTTGAAGAA, the switch fluorescence ratio amounted to 1.01.
In the case of ACATTGCCGT, the switch fluorescence ratio was 1.01.
In the case of TGGGTGGGT, the switch fluorescence ratio amounted to 1.04.
On to TTGAAATATC, for which the switch fluorescence ratio was found to be 1.02.
Same read-out and setting: the value for CACTGGGCTT was 1.03; that for CTTATGTTCG was 0.941; that for TTTGTCCCCA was 1.59.
The same measure, in the same setting: for AGCCGGGTGA the value was 1.13.
For GGACGTTGTA, the switch fluorescence ratio turned out to be 0.991.
For the sequence TGGGACTGAA, the switch fluorescence ratio was 1.02.
Turning to CCACCTGGTA, the switch fluorescence ratio worked out at 1.32.

Another data set deals with ATP. Put plainly: switch fluorescence ratio, 500 uM ATP over buffer (Cy3 cluster intensity, sum of 5 cycles each) (fold (ratio)); higher = stronger signal-on switching upon ATP binding. The note with it: aptamer strand: ATP DNA aptamer (quencher-CACCTGGGGGAGTATTGCGGAGGAAGG + anchor), 100 nM annealed; ATP concentration: 500 uM; one replicate. The method, boiled down: as §1
Consider “TCGTCGGCAGCGTCAGATGTGTATAAGAGACAGTTTTTTTTTTTTTTTTTTTTTTTTTTGTTC”, for which the switch fluorescence ratio amounted to 0.964.
